Measured values taken from the supplement of paper PMC10126150.
Sequences with one replicate were seen in a single cluster, so their values are uncertain.

What follows are sequences tested on ATP (assay: switch fluorescence ratio, 500 uM ATP over buffer (Cy3 cluster intensity, sum of 5 cycles each) (fold (ratio)); higher = stronger signal-on switching upon ATP binding; sequences stand for … in TCGTCGGCAGCGTCAGATGTGTATAAGAGACAGTTTTTTTTTTTTTTTTTTTTTTTTT…TC). Details: aptamer strand: ATP DNA aptamer (quencher-CACCTGGGGGAGTATTGCGGAGGAAGG + anchor), 100 nM annealed; ATP concentration: 500 uM; one replicate.
Procedure, shortened: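 Cy3-labelled switching-strand clusters on a modified Illumina MiSeq flow-cell were annealed to 100 nM quencher-labelled ATP aptamer, imaged in selection buffer, then imaged after 15 min with 500 uM ATP at 22 °C. Five buffer/ATP cycles ran, with NaOH stripping and re-annealing between them. The fluorescence ratio is summed target-cycle over summed buffer-cycle Cy3 intensity per cluster, averaged per switch-domain sequence. Clusters outside 100-1000 RFU were excluded.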
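Note: ATP exposure 15 min at 22 °C before imaging.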

Row | Sequence | switch fluorescence ratio
1 | TGACAGGGGC | 1.18
2 | TACATACTGA | 1.3
3 | ATGGCACTAG | 0.992
4 | CCTTCCCCGG | 1.33
5 | AGCTCAATGG | 1.02
6 | ACCTGTCGAG | 1.06
7 | GCTGTGCTAA | 1.05
8 | TGTTTGCTCA | 1.04
9 | AAGTTAAGAT | 0.993
10 | AAAGCTGATA | 0.987
11 | CAGGGCTGG | 0.985
12 | TGCACATTTT | 1.02
13 | CATATAAAGG | 1.01
14 | CTCTGAGCTG | 1.08
15 | GCAAGGGGCA | 0.988
16 | CGAAGTCGGA | 1.02
17 | CGCTTACGGA | 1.16
18 | AGAACAGCAA | 1.45
19 | TGTGTGTCAG | 0.979
20 | GAGTGAAGTA | 0.968
21 | ATAGCATGTG | 0.995
22 | AGTCCTTTCT | 1.06
23 | GCGCGGAAAG | 1.04
24 | ATTAGCAATT | 1.37
25 | TAATCTCTTA | 1.01
26 | AGCGGGTTCA | 1.01

Row | Sequence | switch fluorescence ratio
27 | TTAGGGTTAC | 1
28 | ATTATAACCA | 1.02
29 | ACTTATCTA | 1
30 | CAGACTTTAC | 1.24
31 | GGCGCCTAAG | 1.03
32 | TCGGGTAGCG | 1.01
33 | TGCGCTCATA | 1.01
34 | GCAACGGGTG | 1.78
35 | TTTAGCGCAA | 1.72
36 | GGCGGAAGCT | 1.02
37 | TAGGTGGCGA | 0.964
38 | GCTTGCTGAC | 0.989
39 | AAGACTTATC | 1
40 | GCCAGTAGGG | 0.979
41 | TATTGGTACT | 1.04
42 | CGATTGTCTC | 0.953
43 | GGCCTGCG | 0.95
44 | GCTGCACATG | 1
45 | TACGACTTAG | 1.02
46 | GTTTTCCGAT | 1.02
47 | CTTTTGGGAT | 1.01
48 | TCGGCACGAC | 1.09
49 | CAGCTCAGCG | 0.955
50 | AGAAACTTAT | 0.998
51 | CCTACCATCT | 1.24
52 | TACGATATGT | 1.21

Row | Sequence | switch fluorescence ratio
53 | GGCAAATAAT | 0.997
54 | CCTGCAAGGA | 1.03
55 | GTCACACGTC | 0.999
56 | AAAGTTACCG | 1.08
57 | ATGGATGTAT | 0.949
58 | GACCCCGTGG | 1.02
59 | CTAATTCGCT | 1.02
60 | GCGGGCAGCG | 1
61 | CCCAGGGTAT | 1.42
62 | GATGCTTCTC | 1.04
63 | TGCGCTTGTA | 0.997
64 | GGCGGTAAGC | 1.04
65 | CGTGGGTAGG | 1.04
66 | TGGCGCTGGC | 0.968
67 | CCTCCGGCAT | 2.43
68 | GATGGCACCC | 1.25
69 | TGTTAAGGAC | 1.01
70 | GCGAATTCAT | 1.01
71 | GCGATTATG | 1.02
72 | CGTACGGTTG | 0.967
73 | AATTCGTGGC | 1.04
74 | TATCCCTGGG | 1.06
75 | CTTCCTTTA | 1.05
76 | GACTGCGACA | 1.09
77 | GCAAGTGTG | 1.33
78 | AACTAATTAA | 0.982

Row | Sequence | switch fluorescence ratio
79 | CACGCGTGGG | 0.964
80 | GAGTGGAGAG | 0.976
81 | TGAACACTTT | 1.03
82 | TGAGTGATGG | 0.963
83 | GCTTAGTTGC | 0.988
84 | CATTAATA | 0.999
85 | CTTAATGATC | 0.982
86 | GTAATCATGT | 1.07
87 | CGCAATCGCG | 1.26
88 | GTACAGCTTG | 0.95
89 | AACGTTAAAG | 1.05
90 | TCCGTGTCGA | 1.33
91 | AGCTATTCTC | 1.33
92 | CGTCCGGTTT | 1.1
93 | GATGGGCAAC | 1.01
94 | TCAAGCTAGT | 1.03
95 | CTAATCCTGG | 1.02
96 | CACTCTTGGG | 0.98
97 | TCGTGAGCT | 0.972
98 | TACGCTCCCC | 2.22
99 | CAATGCTTCA | 1.08
100 | GGTGAGAGGG | 1.01
101 | GGGAACAGCG | 0.981
102 | ATTCTTGATC | 0.966
103 | AGATGGGCAT | 0.99
104 | AAAACTAGTT | 0.981

Row | Sequence | switch fluorescence ratio
105 | GATTCGCCGA | 1.04
106 | TCCACGATGG | 1.09
107 | AATGGGGTTG | 1.04
108 | TAAAATGTAA | 1.01
109 | TCGTATTATA | 1.03
110 | AGGGTATATG | 0.982
111 | ATGTCATTAG | 1
112 | GATGTCCAAC | 1
113 | GCACCTCGAT | 1
114 | TATAGAATC | 1
115 | GAATCGCCCG | 1
116 | TGGCAGCGGG | 1.01
117 | GACATAGGA | 1.02
118 | AGGCATGCGT | 1.01
119 | TCCGATTGTT | 1.27
120 | AAAGGTAACA | 1
121 | CGAGGTAATT | 1.32
122 | CAGTAGCCG | 0.94
123 | TTGCCGATCA | 1.06
124 | ATGGATGTAA | 1.02
125 | CGTCGAAGCA | 1.06
126 | CTAACAGTTA | 0.995
127 | TCGGCCTGTG | 0.989
128 | TTTTCTACAC | 0.954
129 | GAACGCATCT | 2.16
130 | AAGGAGGTGG | 1.1

Row | Sequence | switch fluorescence ratio
131 | TCTCAACGAA | 1.02
132 | AGTGTTGTAC | 1.05
133 | TTACAGGGA | 0.962
134 | TTTATCTGGG | 0.982
135 | TAGCAGTCAG | 1.02
136 | GAAGTCTAAA | 0.995
137 | TAGTCGGCTT | 0.993
138 | TCCTTAGGT | 0.975
139 | TCTAGTCTTT | 1
140 | CTACATTGGT | 0.974
141 | GCGTTATTGT | 0.951
142 | TTGCATT | 0.999
143 | TCGCTGGAAC | 1.29
144 | GGATTCTTAT | 0.982
145 | CGTTAGGATC | 0.981
146 | ACAGGTAAAT | 1
147 | TTGCTGAGAT | 0.998
148 | AAGCTAAAGA | 0.992
149 | GGCGTCCCTG | 1.02
150 | GGTGATAGC | 0.99
151 | GACAACAGGG | 1.16
152 | TTCGAAATGG | 1.11
153 | TTCCGAGAGG | 1.06
154 | TGCTGTACTG | 1.09
155 | TGAGGCGTAG | 0.957
156 | CTGTAAAGAA | 0.957

Row | Sequence | switch fluorescence ratio
157 | CGACACTGTT | 1.09
158 | CGGATAGGT | 0.994
159 | ATGACCGGAT | 1.01
160 | CAGGCATAGC | 1.03
161 | AAGCGCGAAA | 1.03
162 | GTGTTGAAGA | 0.954
163 | AGCGTAGCTA | 1.01
164 | GCATTAGAGG | 1.01
165 | TGAGCCTAGG | 1.01
166 | CATGTGGGA | 0.99
167 | TATTGCTAGC | 1.02
168 | GTATACAATC | 1.03
169 | TTTGATAGTG | 0.996
170 | CCATAGGCCA | 1.04
171 | ATGGGCCACC | 0.988
172 | GTAAACCGTA | 1.14
173 | AGGACGGCCC | 0.968
174 | CATTGTAAAC | 1.03
175 | GGTTGTTAAA | 0.998
176 | GCAATAGATT | 1.01
177 | GGGTAGTGTG | 0.965
178 | TGGCAGGCCT | 0.997
179 | CGCCATATCA | 0.962
180 | CCTGAGTTTA | 1.06
181 | TCCTCGAAGT | 1.23
182 | GTAGGCAATG | 1.03

Row | Sequence | switch fluorescence ratio
183 | CCGTTGCTGG | 1.03
184 | GAGAAGGAGC | 1.02
185 | ACTTTCAAAG | 0.994
186 | TTCGGTAATA | 1.06
187 | AAGGCTACCG | 1
188 | TCGCAGTGG | 1.25
189 | GGTACAGGTC | 0.989
190 | TATATTCAGG | 1.01
191 | GAAACGTAAC | 1.36
192 | CTTAACTGTC | 1.02
193 | TCCTCTCAAG | 2.39
194 | CCAACAAAAG | 0.986
195 | GGCCGGATTT | 1.02
196 | AATTCGGATC | 0.99
197 | GGTAGCTAGC | 1.18
198 | TCCAGTTCT | 1
199 | GCCGGATGTT | 0.961
200 | TCTCCTTAG | 1.01
201 | TTTGGCGGAC | 1.01
